Measurements as given in the supplement of paper PMC11417369.
± gives the standard deviation of the averaged measurements. The list shows a part of the results.

system: PfAP2-LT AP2 domain (GST-tagged); experiment: gcPBM binding intensity (ln(normalized median fluorescence intensity)); higher = stronger DNA binding
How it was run: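 In this array assay, P. falciparum DNA-binding domains with a GST tag, expressed in E. coli, were applied for 1 h to primer-extended double-stranded 36-bp intergenic genomic probes and negative controls on an Agilent 4 × 180k array. Bound protein was visualised with Alexa488 anti-GST antibody at 488 nm. Binding intensity is the highest Masliner-normalised natural-log median intensity across replicate spots of either probe orientation.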

Sequence | gcPBM binding intensity (ln)
ATTTCATATTATGTAACACACAACAAGATAATCAAA [CACACA_site1960] | 8.86 ± 0.46
TATATATAAAGGTGTACACATATATATATATCTGTA [CACACA_site5311] | 8.89 ± 0.35
TTTTTCTTTTTACATACACACAAAAAAATAAAATAT [CACACA_site581] | 8.52 ± 0.35
TTTTTCAAATTTAATACACACACAAGTATATATTTA [CACACA_site9307] | 8.9 ± 0.3
AAATTAATATTATGTGCATGCACAAAGAGGAACGAC [TGCATGCA_site754] | 9.56 ± 0.46
TGGTAATTTCTTTGATAAAAATTAATATGTATAAAT [XGTACX_negctrl_site152] | 8.24 ± 0.49
TATTTTAACATTAGGTGTACATACAAAAATAAAAAT [XGTACX_site8577] | 8.84 ± 0.4
AATATTTGTTAAAGAGGTACACCATTTGGTAGGGAA [XGTACX_site2165] | 8.73 ± 0.47
ATTATTTAAATGGATGCACACATGCATTAAATAAAA [CACACA_site5831] | 8.75 ± 0.45
AAAAAAAAAAATATAACACACAACAAAAAAATATAT [CACACA_site1753] | 9.15 ± 0.48
ATAATATGAAAACACACACACACACTAGAAAAAAAA [CACACA_site5153] | 10.2 ± 0.27
ACCCTATATGTAACTACACACCGCATATTGTTTACT [CACACA_site3071] | 9.46 ± 0.42
TTTATATTCTTAAGTGTGCACTATATATATATATAT [GTGCAC_site9719] | 9.16 ± 0.23
TTTGTTCATATTATTGTGCACTTAAACGTAACAAAA [GTGCAC_site9505] | 8.6 ± 0.31
ATGTATGTATATACTTGTACATATTCATATTAGTAT [XGTACX_site1118] | 8.91 ± 0.39
AATGTAGCATTTTATCGTACACTTAATACAAAAAAG [XGTACX_site6214] | 8.73 ± 0.3
TAATAAGTAAAAAAATGTACCCGTTAGGTTTAATAA [XGTACX_site638] | 8.53 ± 0.53
AAAATAATATTTAATACACACACCAGTTCTGCAAAT [CACACA_site3736] | 9.27 ± 0.31
TTTTTTTATTTTATTTTATTATCTTATGTATCACAA [CACACA_negctrl_site1755] | 8.66 ± 0.47

Sequence | gcPBM binding intensity (ln)
AGAAATATATATATATATATATGTGACAATATTTGT [TGCATGCA_negctrl_site282] | 9.19 ± 0.26
TTTTTCTCTCTCTTATTATACAACAACAAAAAAAAA [GTGCAC_negctrl_site178] | 8.02 ± 0.35
ACAAAAAGGTAATTTACACACTGCATATAGGAATAA [CACACA_site2929] | 9.08 ± 0.47
TATAATAATAATAATAGTACGTATTATTAAAAAACT [XGTACX_site10] | 8.88 ± 0.39
ATATTACACATATATGCACACATTGTAGTTATTTAT [CACACA_site8843] | 9.24 ± 0.33
CAATTACAAAAGAAATGTACTCGTAATAAATAAATA [XGTACX_site1126] | 8.96 ± 0.47
TGAAATTTTTATACATGTACAAAATTAAATATAACA [XGTACX_site7324] | 8.59 ± 0.41
AAATTATTTCCGTGTACACATAAATATATATTTTAT [CACACA_site5121] | 9.01 ± 0.38
TAAGTTCACAAAAAAAAAAAAAAATAAAGAAATAAA [CACACA_negctrl_site825] | 8.35 ± 0.62
TTATTATGCTGAGTACGTACTTATATAAGAATAGCA [XGTACX_site2955] | 8.7 ± 0.38
ATGTATATAATAAGAACACACATATATTTAATTTAA [CACACA_site2941] | 9.01 ± 0.46
TATTCTATATTTCTATTTAGAAAACATCCCAGTGTG [GTGCAC_negctrl_site184] | 8.49 ± 0.52
AAAAATAAAATATATACATGCATATACATATTATAT [TGCATGCA_site668] | 8.71 ± 0.44
TGTTATATTTAATATAGTACATATTATTTTATATAT [XGTACX_site70] | 8.71 ± 0.49
AGAAAATTAAAAAGAACACACAAATATATATAGAAT [CACACA_site3592] | 9.18 ± 0.51
ATTTATATGCACCATTGTACGTTTTATAAAGTTTGG [XGTACX_site3755] | 8.94 ± 0.42
ATACATATATACATACGTACTTATATACATATGTGC [XGTACX_site5268] | 9.07 ± 0.42
TATCATGTCTGTATTTCACACACGGATAATCATTTA [CACACA_site920] | 9.09 ± 0.44
ATGCTTTTATAAATAATTAAAAAAAAAAAAAAAAAA [TGCATGCA_negctrl_site533] | 7.92 ± 0.42

Sequence | gcPBM binding intensity (ln)
CTCAAATAATTTTTTACACACATTATTTGAAATAAG [CACACA_site1290] | 8.7 ± 0.3
TTTTTTTTTAATATTTGTACACAACATGAAACATTT [XGTACX_site473] | 8.73 ± 0.58
GTAATATATACAAAATGTACAAAACAATAACATGAT [XGTACX_site8575] | 9.2 ± 0.52
ATCCAAACAAATAAAACATGCATAATATATATATAT [TGCATGCA_site766] | 9.16 ± 0.2
TAAAATATTACGTGTACACATAAATAAAAATAAAAA [CACACA_site5066] | 8.89 ± 0.57
TTTTATATTCCACAAAAAATTATATAATAATAGAAC [CACACA_negctrl_site1741] | 8.4 ± 0.38
TATACATATGAAAATACACACATACATACCTATATA [CACACA_site6888] | 9.29 ± 0.36
TATTTAACACCTTATACACACTTTCTTCCTTTTTTA [CACACA_site4590] | 8.96 ± 0.53
TAATTGTACGCCAATACACACAGAATTATAATGTAG [CACACA_site6201] | 9.06 ± 0.32
ATGCACTCATTGTGCACACGCATATTACGAAAAGAA [CACACA_site2638] | 9.2 ± 0.34
AAAAAAAAAAAAAACACACACACACCCATACAAAAT [CACACA_site1446] | 10.12 ± 0.064
AATAAATAAAAAACATGTACAAATATAATATAGCAT [XGTACX_site6429] | 9.22 ± 0.36
TATATATATATGTGTATACACACCTGATAAAGGTAT [CACACA_site2653] | 9.56 ± 0.25
AAGATTTGAAAAAATACACACAATAAAAAAATAAAA [CACACA_site3281] | 9.03 ± 0.7
AAAAAAAAAAAGCACACACACATATGTGTATTTATA [CACACA_site6578] | 9.63 ± 0.23
ACAAAATATACAAAATGTACAAAATTTACAAAATGT [XGTACX_site3544] | 8.93 ± 0.38
TACTAGCAAATACATACACACACACCCATATACATA [CACACA_site9163] | 9.78 ± 0.23
GATATTGAGAAAGGGTGTACAAGATATTATACTATA [XGTACX_site3598] | 8.79 ± 0.43
